# Source: the supplement of paper PMC7826260
# The other results are listed elsewhere or left out. Each Rep nickase domain was tested in vitro on the same pool of single strands (1 h at 37 °C, 3 µM enzyme); the outer parts of the 90-letter strands are left off. The score is log2 (uncut reads / reads without enzyme); strong cutting gives strongly negative numbers. There is no active / inactive call. Because reads are shares of a total, they shift together, so uncut sequences can rise above 0 when many others are cut.
# What was measured:
# Test in all cases: uncleaved DNA left, log2 of reads against the no-enzyme library (log2 ratio); higher = less cleavage (more negative = more Rep cleavage of the k-mer); sequences stand for … in CTCGTCCG…ACCGGAGA
# [1] = test system: T1, Rep nickase domain of Muscovy duck circovirus
# T1 sequence (Rep 1-111, printed without the tag): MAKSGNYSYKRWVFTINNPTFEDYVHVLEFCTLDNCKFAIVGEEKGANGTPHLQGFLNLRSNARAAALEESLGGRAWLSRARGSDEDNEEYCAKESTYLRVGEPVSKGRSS
# Procedure: (§1)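 A pool of 90-nt single-stranded DNAs with seven random bases just before the constant AC of the nick site (name = the seven bases) was cut by 3 µM recombinant His6-SUMO-tagged Rep nickase domain (300 nM DNA, 50 mM HEPES pH 8.0, 50 mM NaCl, 1 mM MnCl2, 1 h, 37 °C, three replicates). Uncut DNA was amplified and sequenced.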
# [2] = test system: T2, Rep nickase domain of banana bunchy top virus
# T2 sequence (Rep 1-94, printed without the tag): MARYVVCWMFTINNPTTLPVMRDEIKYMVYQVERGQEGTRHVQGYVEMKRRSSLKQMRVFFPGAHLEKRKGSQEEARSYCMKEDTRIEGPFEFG
# Procedure: as §1
# [3] = test system: T3, Rep nickase domain of cabbage leaf curl virus
# T3 sequence (Rep 1-116, printed without the tag): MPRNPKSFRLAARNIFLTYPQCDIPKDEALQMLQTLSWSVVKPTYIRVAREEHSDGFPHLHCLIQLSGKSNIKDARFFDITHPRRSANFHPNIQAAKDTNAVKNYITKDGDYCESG
# Procedure: as §1
# [4] = test system: T4, Rep nickase domain of chickpea chlorotic dwarf virus
# T4 sequence (Rep 1-124, printed without the tag): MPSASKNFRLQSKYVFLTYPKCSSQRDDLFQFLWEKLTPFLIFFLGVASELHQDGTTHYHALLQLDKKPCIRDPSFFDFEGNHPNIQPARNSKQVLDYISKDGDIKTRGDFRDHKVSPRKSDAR
# Procedure: as §1
# [5] = test system: T5, Rep nickase domain of faba bean necrotic yellows virus
# T5 sequence (Rep 1-98, printed without the tag): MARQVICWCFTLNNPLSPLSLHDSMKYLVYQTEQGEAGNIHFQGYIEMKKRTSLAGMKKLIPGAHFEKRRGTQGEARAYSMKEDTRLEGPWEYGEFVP
# Procedure: as §1
# [6] = test system: T6, Rep nickase domain of maize striate mosaic virus
# T6 sequence (Rep 1-117, printed without the tag): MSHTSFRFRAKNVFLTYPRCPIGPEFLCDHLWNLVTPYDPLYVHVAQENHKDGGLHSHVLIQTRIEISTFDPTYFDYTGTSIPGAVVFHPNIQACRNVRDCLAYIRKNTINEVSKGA
# Procedure: as §1
# [7] = test system: T7, Rep nickase domain of porcine circovirus 2
# T7 sequence (Rep 2-116, printed without the tag): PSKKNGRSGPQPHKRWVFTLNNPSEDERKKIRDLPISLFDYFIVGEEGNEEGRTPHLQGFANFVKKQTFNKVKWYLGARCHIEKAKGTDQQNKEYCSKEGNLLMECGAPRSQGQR
# Procedure: as §1
# [8] = test system: T8, Rep nickase domain of tomato yellow leaf curl virus
# T8 sequence (Rep 1-136, printed without the tag): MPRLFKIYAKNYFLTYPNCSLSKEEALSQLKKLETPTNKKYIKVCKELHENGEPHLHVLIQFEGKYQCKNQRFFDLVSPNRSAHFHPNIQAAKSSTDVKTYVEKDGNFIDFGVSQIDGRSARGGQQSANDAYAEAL
# Procedure: as §1
# [9] = test system: T9, Rep nickase domain of wheat dwarf virus
# T9 sequence (Rep 1-137, printed without the tag): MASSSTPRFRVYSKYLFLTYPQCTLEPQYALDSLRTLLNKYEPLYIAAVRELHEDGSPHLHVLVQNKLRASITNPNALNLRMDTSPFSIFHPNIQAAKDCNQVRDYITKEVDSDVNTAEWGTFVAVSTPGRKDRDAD
# Procedure: as §1
Sequence,uncleaved DNA left (log2) [1],uncleaved DNA left (log2) [2],uncleaved DNA left (log2) [3],uncleaved DNA left (log2) [4],uncleaved DNA left (log2) [5],uncleaved DNA left (log2) [6],uncleaved DNA left (log2) [7],uncleaved DNA left (log2) [8],uncleaved DNA left (log2) [9]
TGTCTGA,0.101,-0.106,0.234,0.421,0.0618,0.656,0.135,0.15,0.0842
TCTTACA,-0.248,0.0328,-0.993,-2.42,-0.124,-0.423,-1.88,-0.0239,-0.737
TCGTATA,-0.0379,-0.0594,-0.119,-1.2,-0.0853,-0.42,-0.599,-0.0531,-0.163
TGCGGGA,0.0812,-0.0405,-0.112,-0.256,0.00872,-0.351,0.0171,-0.0841,0.0241
TTCCAGA,0.184,0.112,0.687,0.683,0.12,1.17,0.268,-0.00568,0.242
GGACAAC,0.0782,0.183,0.92,1.98,0.0526,2.31,0.276,0.0937,0.146
CCCAGTT,0.0898,-0.128,-0.209,-1.97,-0.0296,-0.506,-0.155,0.00387,-0.0558
ATCCCGA,0.0742,0.00112,-0.37,-0.431,0.0722,-0.829,0.0457,-0.0965,-0.0474
AGACCGT,0.144,0.0331,0.642,0.996,0.0848,1.41,0.115,0.0575,0.112
CTTGCAA,0.209,0.119,-0.516,-0.412,0.141,-1.03,0.114,0.23,0.1
TGACATT,0.222,0.185,0.889,1.98,0.158,2.31,0.126,0.135,0.274
TTGATAA,0.0799,0.0535,0.196,0.575,0.0799,0.84,0.0323,0.0838,0.0546
CAGGAGG,0.0835,-0.144,0.0872,0.383,0.00135,-0.284,0.134,-0.101,-0.0255
CACCACT,-0.285,-0.162,-0.856,-3.15,-0.153,-1.15,-1.59,-0.0706,-0.142
TTCAGGC,0.0431,0.00786,0.298,0.67,0.0767,0.455,0.104,0.032,-0.0507
TCATGGG,0.135,-0.0165,-0.624,-0.658,0.0791,-1.01,0.109,0.0788,-0.0844
CACTAAT,-3.19,-3.02,-1.13,-2.88,-0.561,-0.832,-3.44,0.0653,-0.222
TGGTCAC,0.0438,0.0646,0.464,1.18,-0.0117,1.79,0.0752,0.0668,0.14
CCCACCG,-0.1,-0.0153,-0.63,-0.225,-0.0229,-0.775,0.0407,-0.0119,0.0276
GCAATTC,-0.102,-0.0578,-0.0862,0.267,-0.0739,-0.423,0.0726,-0.038,-0.0885
ACAGACA,-0.0375,0.043,0.00532,-1.08,0.149,-0.196,0.144,-0.168,0.00159
TCTACAA,0.0196,0.116,0.0376,-1.37,0.0377,-0.127,-0.0342,0.126,0.0774
CTAGACG,-0.06,-0.168,-0.717,-0.976,-0.143,-1.15,0.0864,-0.0518,-0.168
AAAGGTC,0.118,0.122,0.3,0.881,0.0422,0.931,0.142,0.0177,0.022
TTGATCA,0.16,0.2,0.445,0.225,0.105,0.639,0.0452,0.167,0.149
GGACGGC,-0.122,0.0927,0.81,1.72,-0.13,2.23,0.144,-0.113,0.0634
GGAGGTT,0.0392,0.117,0.656,1.27,0.0568,2.03,0.0849,0.00724,0.136
CTACCTT,0.00513,-0.0588,-0.369,-2.35,0.075,-0.283,-0.874,-0.0672,-0.115
